The assay concerns the target T1, DENV2 NS2B-NS3 protease complex (Dengue virus type 2, UniProt P14340).
T1 construct: pairs of primers of 1394F and 1440C for NS2B and 1476F and 1660C for NS3; made in house; host or cells: Escherichia coli Rosetta 2(DE3)
In kind it is biochemical.

[1] abbreviates: compound 3 μM, protease 150 nM, Abz substrate 25-400 μM.

On to `O=C1C=CC(=NNc2ccc([N+](=O)[O-])cc2Cl)C=C1C(=O)Nc1cccc(Cl)c1` [NSC135618], for which, under setting [1], the “effect on Km” value is recorded as “did not change” and the “effect on Vmax” value was “significantly reduced the Vmax value”. In addition, the inhibition mechanism entry (from Vmax/Km, Lineweaver-Burk plot) is reported as “non-competitive”.
